Reference: the supplement of paper PMC8728848
Some of the results follow.

Assays:
Assay in all cases: glycan array binding signal (z-score within array); higher = stronger binding
Settings in all cases: glycan notation: IUPAC condensed, linker removed
[1] = molecular target: Fuc(a1-2)[Gal(a1-3)]Gal(b1-4)[Fuc(a1-3)]GlcNAc(b1-3)GalNAc
Summary of the method: (§1)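 The binding signal is a Z-score computed within each array. Data were drawn from 3228 arrays in the Consortium for Functional Glycomics database, restricted to those with a known protein sequence. Scores were averaged over arrays of the same protein sequence at different concentrations or buffers, and over linkers, and negative values can be taken as non-binding.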

[2] = molecular target: Fuc(a1-2)[Gal(a1-4)]Gal(b1-4)GlcNAc
Summary of the method: as §1

[3] = molecular target: Fuc(a1-2)[GalNAc(a1-3)]Gal
Summary of the method: as §1

[4] = molecular target: Fuc(a1-2)[GalNAc(a1-3)]Gal(b1-3)GalNAc(a1-3)[Fuc(a1-2)]Gal(b1-4)GlcNAc
Summary of the method: as §1

[5] = molecular target: Fuc(a1-2)[GalNAc(a1-3)]Gal(b1-3)GalNAc(b1-3)Gal(a1-4)Gal(b1-4)Glc
Summary of the method: as §1

[6] = molecular target: Fuc(a1-2)[GalNAc(a1-3)]Gal(b1-3)GlcNAc
Summary of the method: as §1

[7] = molecular target: Fuc(a1-2)[GalNAc(a1-3)]Gal(b1-3)GlcNAc(b1-2)Man(a1-3)[Fuc(a1-2)[GalNAc(a1-3)]Gal(b1-3)GlcNAc(b1-2)Man(a1-6)]Man(b1-4)GlcNAc(b1-4)GlcNAc
Summary of the method: as §1

[8] = molecular target: Fuc(a1-2)[GalNAc(a1-3)]Gal(b1-3)GlcNAc(b1-2)Man(a1-3)[Fuc(a1-2)[GalNAc(a1-3)]Gal(b1-3)GlcNAc(b1-2)Man(a1-6)]Man(b1-4)GlcNAc(b1-4)[Fuc(a1-6)]GlcNAc
Summary of the method: as §1

[9] = molecular target: Fuc(a1-2)[GalNAc(a1-3)]Gal(b1-3)GlcNAc(b1-3)GalNAc
Summary of the method: as §1

[10] = molecular target: Fuc(a1-2)[GalNAc(a1-3)]Gal(b1-3)GlcNAc(b1-6)GalNAc
Summary of the method: as §1

[11] = molecular target: Fuc(a1-2)[GalNAc(a1-3)]Gal(b1-4)Glc
Summary of the method: as §1

[12] = molecular target: Fuc(a1-2)[GalNAc(a1-3)]Gal(b1-4)GlcNAc
Summary of the method: as §1

[13] = molecular target: Fuc(a1-2)[GalNAc(a1-3)]Gal(b1-4)GlcNAc(b1-2)Man
Summary of the method: as §1

[14] = molecular target: Fuc(a1-2)[GalNAc(a1-3)]Gal(b1-4)GlcNAc(b1-2)Man(a1-3)[Fuc(a1-2)[GalNAc(a1-3)]Gal(b1-4)GlcNAc(b1-2)Man(a1-6)]Man(b1-4)GlcNAc(b1-4)GlcNAc
Summary of the method: as §1

[15] = molecular target: Fuc(a1-2)[GalNAc(a1-3)]Gal(b1-4)GlcNAc(b1-2)Man(a1-3)[Fuc(a1-2)[GalNAc(a1-3)]Gal(b1-4)GlcNAc(b1-2)Man(a1-6)]Man(b1-4)GlcNAc(b1-4)[Fuc(a1-6)]GlcNAc
Summary of the method: as §1

[16] = molecular target: Fuc(a1-2)[GalNAc(a1-3)]Gal(b1-4)GlcNAc(b1-3)Gal(b1-4)GlcNAc
Summary of the method: as §1

[17] = molecular target: Fuc(a1-2)[GalNAc(a1-3)]Gal(b1-4)GlcNAc(b1-3)Gal(b1-4)GlcNAc(b1-3)Gal(b1-4)GlcNAc
Summary of the method: as §1

[18] = molecular target: Fuc(a1-2)[GalNAc(a1-3)]Gal(b1-4)GlcNAc(b1-3)GalNAc
Summary of the method: as §1

[19] = molecular target: Fuc(a1-2)[GalNAc(a1-3)]Gal(b1-4)GlcNAc(b1-3)[Fuc(a1-2)[GalNAc(a1-3)]Gal(b1-4)GlcNAc(b1-6)]GalNAc
Summary of the method: as §1

[20] = molecular target: Fuc(a1-2)[GalNAc(a1-3)]Gal(b1-4)GlcNAc(b1-6)GalNAc
Summary of the method: as §1

[21] = molecular target: Fuc(a1-2)[GalNAc(a1-3)]Gal(b1-4)[Fuc(a1-3)]GlcNAc
Summary of the method: as §1

[22] = molecular target: Fuc(a1-2)[GalNAc(a1-3)]Gal(b1-4)[Fuc(a1-3)]GlcNAc(b1-3)GalNAc
Summary of the method: as §1

[23] = molecular target: Fuc(a1-2)[GalNAc(a1-4)]Gal(b1-4)GlcNAc
Summary of the method: as §1

B1: AT1G73650(15) (Arabidopsis thaliana), F4HRY1 (protein)
chain: MGTVLDSHFLALTAIVTVIYQFIFFVITALFKFDQVTDFAGSTNFVILAVLTLVLKASWHFRQIVLTLLVVVWGLRLGIFLLMETRILQWGEDRRFDEQRGNIVRLIIFWTLQAVWVWTVSLPLTLVNASDGGGSLKPADVIGWTMETWVFGFLIEAAADQQKLSFKNSPENRGKWCDVGVWKYSRHPNYFGEMETLLWWGIFVAASPVLEGAEYLVIFGPLFLTLLLLFVSGIPLLEASADKKHGNSGAYRSYKKTTSPLILFPRGVYGNLPGWFKTVFLFEFPFYSRNLPQEGRLQNSKEKEVKDD
Q: B1 was tested. Which “glycan array binding signal (z-score)” value [1] did it give?
A: -0.11

Q: What about the “glycan array binding signal (z-score)” value [2] of the same binder?
A: 1.89

Q: What about the “glycan array binding signal (z-score)” value [3] of the same binder?
A: 0.027

Q: And the “glycan array binding signal (z-score)” value [4]?
A: -0.534

Q: And the “glycan array binding signal (z-score)” value [5]?
A: -0.314

Q: And the “glycan array binding signal (z-score)” value [6]?
A: 0.431

Q: And the “glycan array binding signal (z-score)” value [7]?
A: -0.569

Q: And the “glycan array binding signal (z-score)” value [8]?
A: -0.562

Q: And the “glycan array binding signal (z-score)” value [9]?
A: 0.226

Q: And the “glycan array binding signal (z-score)” value [10]?
A: -0.549

Q: And the “glycan array binding signal (z-score)” value [11]?
A: -0.567

Q: What about the “glycan array binding signal (z-score)” value [12] of the same binder?
A: -0.398

Q: And the “glycan array binding signal (z-score)” value [13]?
A: -0.431

Q: What about the “glycan array binding signal (z-score)” value [14] of the same binder?
A: -0.212

Q: What about the “glycan array binding signal (z-score)” value [15] of the same binder?
A: -0.593

Q: What about the “glycan array binding signal (z-score)” value [16] of the same binder?
A: -0.687

Q: What about the “glycan array binding signal (z-score)” value [17] of the same binder?
A: -0.286

Q: What about the “glycan array binding signal (z-score)” value [18] of the same binder?
A: -0.279

Q: And the “glycan array binding signal (z-score)” value [19]?
A: -0.573

Q: And the “glycan array binding signal (z-score)” value [20]?
A: -0.351

Q: And the “glycan array binding signal (z-score)” value [21]?
A: -0.543

Q: What about the “glycan array binding signal (z-score)” value [22] of the same binder?
A: 2.17

Q: And the “glycan array binding signal (z-score)” value [23]?
A: -0.392
